For 90 compounds, survival results are on record in PubChem BioAssay AID463173 (ICCB-Longwood Screening Facility, Harvard Medical School, 2010).

Molecules are shown by their SMILES. Hit rate of the full screen: of about 52,000 compounds, about 1,700 (3.3%) were called active. No stated cut-off is given here; in the data, active means survival mostly below about 52% (no sharp cut-off); inactive means mostly above about 56%. The list shows a part of the results.

The subject of the assay is Wild type. The assay can be described thus: growth inhibition of S. aureus wild type versus tarO mutant, primary screen, teichoic acid synthesis inhibitors, RN4220, OD600 (AID 463173). To be noted: S. aureus RN4220 wild type/DeltatarO growth, OD600, 18 h, active compounds read low, screened at 18.75 µg/mL (by protocol).
For the compound `COC(=O)c1sc2cccc(F)c2c1S(=O)(=O)Nc1ccc(C)cc1Cl`, the survival was inactive: 63%.

As for `O=C(NN1C(=O)C2C3c4ccccc4C(c4ccccc43)C2C1=O)C1CC1` (stereo not given), the survival is inactive: 117%.

On to `CC1CCN(CC(=O)Nc2ccc3ccccc3c2)CC1`, for which the survival was inactive: 110%.

Turning to `Cc1ccc(NS(=O)(=O)c2ccc3c(c2)[C@H]2C=CC[C@H]2[C@@H](c2ccc(F)cc2)N3)cc1C`, the survival is inactive: 63%.

Take `Cn1c(=O)c2c(SCC(=O)NCc3ccc(F)cc3)nc(-c3ccccc3Cl)nc2n(C)c1=O`: the survival was inactive: 71%.

In the case of `Cc1ccc(NC(=O)CSc2nc3ccc(NC(=O)COc4ccc(C)cc4)cc3s2)cc1`, the survival is inactive: 88%.

Take `COc1ccccc1N1CCN(C(=O)CCn2nc(C)c(S(=O)(=O)N3CCCC3)c2C)CC1`: the survival was inactive: 90%.

As for `COc1ccc2[nH]c(=O)c(CN(Cc3ccc(C)cc3)C(C)=O)cc2c1`, the survival was inactive: 115%.

Regarding `O=C(Nc1ccc2[nH]c(=O)c(=O)[nH]c2c1)c1cccc(F)c1`, the survival is inactive: 140%.

Take `O=C(Nc1nnc(C2CC(=O)N(c3ccc(Cl)cc3)C2)s1)c1ccco1` (stereo not given): the survival is inactive: 85%.

Turning to `Cc1ccc(SCc2nc(-c3ccc(C(=O)Nc4cc(C)ccc4C)cc3)oc2C)cc1`, the survival was inactive: 129%.

For `Cc1nc2c(-c3ccccc3)c(C)nn2c(C)c1CCC(=O)Nc1ccccc1F`, the survival was inactive: 85%.

For `Cn1c(=O)[nH]c(=O)c2[nH]c(NCCO)nc21`, the survival is inactive: 104%.

For `Cc1ccccc1C1=CCN(c2ncc(NC(=O)c3ccc(Cl)cc3)cc2C(=O)O)CC1`, the survival was inactive: 69%.

Take `Cc1nc2nc(SCC(=O)NCCc3ccc(Cl)cc3)nn2c(C)c1Cc1ccccc1Cl`: the survival was inactive: 80%.

With `O=C1CC(c2ccc(F)cc2)c2c(c3ccccc3[nH]c2=O)O1` (stereo not given), the survival was inactive: 74%.

As for `CCOC(=O)c1ccc(NC(=O)CSc2nccn2-c2cc(C)cc(C)c2)cc1`, the survival is inactive: 76%.

In the case of `CCOc1ccccc1NC(=O)Nc1cc2c(cc1N1CCCCC1)n(CC)c(=O)n2CC`, the survival was inactive: 70%.

For the compound `CC(Sc1nc(-c2ccccc2)cc(C(F)(F)F)n1)C(=O)N1CCCC1` (stereo not given), the survival was inactive: 105%.

Regarding `CC(=O)c1ccc(N2CCN(C(=O)CCn3cnc4onc(-c5ccc(F)cc5)c4c3=O)CC2)cc1`, the survival is active: -6%.

`CCOc1ccccc1CNCc1c(C(=O)O)n(Cc2ccc(F)cc2)c2cc(C)ccc12`: the survival is inactive: 84%.

Consider `Cc1ccc(-c2noc(-c3cc(-c4ccc(F)cc4)n[nH]3)n2)cc1`, for which the survival was inactive: 73%.

Turning to `CC(C(=O)O)N1CCCC1` (stereo not given), the survival was inactive: 92%.

For `O=C(Nc1c(-c2ccccc2)nc2ccccn12)c1ccccc1F`, the survival was inactive: 61%.

On to `CCn1cc(C(=O)NCCc2ccc(C)cc2)c(=O)c2cc(S(=O)(=O)N3CCc4ccccc4C3)ccc21`, for which the survival is inactive: 76%.

For `Cc1cc(C)cc(NC(=O)CNS(=O)(=O)c2ccc3nc(C)sc3c2)c1`, the survival was inactive: 75%.

On to `O=c1[nH]c2ccc(Cl)cc2c(-c2ccccc2)c1N1CCOCC1`, for which the survival was inactive: 123%.

With `CCC(=O)OCCn1c(=O)c2ccccc2c2ccccc2c1=O`, the survival was inactive: 90%.

Consider `CN1C(=O)Cc2cc(S(=O)(=O)CCC(=O)Nc3ccc(OC(F)(F)F)cc3)ccc21`, for which the survival is inactive: 82%.

For `CCN(C(=O)C1CCCN(c2ncnc3c2nc2n3CCCCC2)C1)c1cccc(C)c1` (stereo not given), the survival is inactive: 84%.

Turning to `CCOc1ccc(OC(=O)c2c(-c3ccccc3Cl)noc2C)cc1`, the survival is inactive: 59%.

With `Cc1ccc(NC(=O)CN2C(=O)c3ccccc3Sc3ccc(C(=O)N4CCOCC4)cc32)c(Cl)c1`, the survival was active: -6%.

As for `Cc1ccc(S(=O)(=O)N2CCCC2C(N)=O)cc1` (stereo not given), the survival was inactive: 107%.

With `CCN(CC)S(=O)(=O)c1ccc2oc(C(=O)Nc3cc(C)ccc3OC)c(C)c2c1`, the survival was inactive: 69%.

As for `CCc1cc2c(cc3c(=O)n(CC(=O)NCc4cc(Br)ccc4OC)ncn32)s1`, the survival is inactive: 127%.

On to `CCOc1ccc(NC(=O)C2CCN(S(=O)(=O)c3c(C)noc3/C=C/c3cccs3)CC2)cc1`, for which the survival is inactive: 115%.

For the compound `CCCCNC(=O)CN1C(=O)COc2ccc(S(=O)(=O)N3CCCCCC3)cc21`, the survival is inactive: 88%.

Turning to `COc1ccc(C(=O)Nc2ccc3oc(-c4ccc5ccccc5c4)nc3c2)cc1Br`, the survival is inactive: 71%.

In the case of `Cn1cccc1-c1cc2n(n1)CCC(=O)N2CCCC(=O)NCc1ccc(F)cc1`, the survival is inactive: 92%.

In the case of `CCOc1ccc(-c2nnc(SCC(=O)c3ccccc3)n2-c2ccccc2)cc1`, the survival was inactive: 113%.

For `COC(=O)CNC(=O)N1CCN(S(=O)(=O)c2ccc3c(ccn3C)c2)CC1`, the survival is inactive: 79%.

In the case of `Cc1cc(=O)[nH]c2nnc(SCc3ccc(C(F)(F)F)cc3)n12`, the survival was inactive: 91%.

For the compound `Cc1ccc(NC(=O)c2ncoc2-c2ccco2)cc1Cl`, the survival is inactive: 81%.

For the compound `Cc1cccc(C)c1NC(=O)Cn1c(SCC(=O)NCc2ccccc2)nc2ccccc21`, the survival is inactive: 72%.

For `COc1ccc2cc(CNc3ccc(OC)c(OC)c3)c(=O)n(CC(=O)Nc3ccccc3F)c2c1`, the survival was inactive: 128%.

On to `CCOC(=O)c1[nH]c(C)c(CCC(=O)Nc2cccc(SC)c2)c1C`, for which the survival was inactive: 76%.

For `COc1ccccc1C(=O)NCC(=O)O`, the survival was inactive: 120%.

For the compound `O=S(=O)(c1ccc(-c2csc(=Nc3ccc(OC(F)(F)Cl)cc3)n2CCCO)cc1)N1CCCC1`, the survival is inactive: 132%.

For the compound `CC(C)CCNC(=O)c1ccc2c(c1)N(Cc1ccccc1F)C(=O)c1ccccc1S2(=O)=O`, the survival was inactive: 89%.

Turning to `Fc1cccc(Cl)c1CNCCSc1nnnn1-c1ccccc1`, the survival is inactive: 81%.

In the case of `N#CCn1c2ccc(Cl)cc2c2nc3ccccc3nc21`, the survival was inactive: 114%.

In the case of `COc1cccc(C(=O)N(Cc2ccco2)c2ccccn2)c1`, the survival was inactive: 103%.

Take `O=C(CNC(=O)c1ccccc1F)OCc1cc(=O)n2nc(C3CCCCC3)sc2n1`: the survival was inactive: 68%.

For `CC(=O)Nc1ccc(NC(=O)CCSCCc2ccccn2)cc1`, the survival was inactive: 131%.

As to `CCC(=O)C1=C(c2ccc(OC)c(OC)c2)N(C(=O)CC)n2c(CC)nnc2S1`, the survival was inactive: 55%.

As to `Cc1ccc(NC(=O)c2c(NC(=O)Cc3ccccc3)sc3c2CCCC3)cc1`, the survival is inactive: 49%.

Regarding `CCOc1ccc(CCNC(=O)CN2C(=O)COc3ccc(S(=O)(=O)N4CCCCCC4)cc32)cc1`, the survival was inactive: 71%.

Take `CC(=O)c1cccc(NC(=O)Cn2c(=O)oc3cc(S(=O)(=O)N4CCCC4)ccc32)c1`: the survival is inactive: 149%.

Take `CN(C)c1ccc(-c2nnc3n(Cc4ccccc4)c(=O)c4ccccc4n23)cc1`: the survival was inactive: 83%.

Consider `N#Cc1c(-n2ncnc2-c2cccc(Br)c2)sc2c1CCCCC2`, for which the survival was inactive: 45%.

For `COc1ccc(-n2c(SCC(=O)Nc3cccc(C)c3C)nc3c([nH]c4ccccc43)c2=O)cc1`, the survival is inactive: 95%.

On to `CN(C)c1ccc(CNC(=O)c2ccc(NC(=O)N3CCCCc4ccccc43)cc2)cc1`, for which the survival is inactive: 131%.

In the case of `O=C(CSc1nnc(-c2ccncc2)n1Cc1ccco1)OC1CCCCC1`, the survival was inactive: 101%.

Take `CC(C)(C)c1ccc(Oc2ccc(NC(=O)CCC(=O)OCC(=O)c3ccccc3)cc2)cc1`: the survival was inactive: 86%.

Take `Cc1ccc2oc(=O)c3cc(C(=O)N4CCN(c5ccccc5F)CC4)sc3c2c1`: the survival is inactive: 80%.

Regarding `O=C(CNCc1ccco1)Nc1cccc(OC(F)(F)F)c1`, the survival is inactive: 119%.

Take `Cc1ccc(Cl)cc1N1CCN(C(=O)CCCn2c(=O)[nH]c3ccc(Br)cc3c2=O)CC1`: the survival is inactive: 21%.

Take `CCc1ccccc1NC(=O)C1CCN(c2cnccn2)CC1`: the survival is inactive: 82%.

Regarding `CCS(=O)(=O)C(=C1NCCO1)S(=O)(=O)CC`, the survival was inactive: 109%.

As for `COc1cc(NC(=O)CSc2nccn2C)cc(OC)c1OC`, the survival was inactive: 76%.

`Cc1csc(=Nc2ccccc2)n1-c1ccccc1`: the survival was inactive: 94%.

As for `COc1ccc2c(c1)c1c(c(=O)n(-c3ccc(OC)c(OC)c3)c(=O)n1Cc1ccccc1F)n2C`, the survival was inactive: 90%.

With `CC(=O)c1nnn(-c2ccc(C)cc2Cl)c1C`, the survival is inactive: 84%.

Regarding `CC(=O)c1ccc(Nc2ccc3cc(S(=O)(=O)N4CCCC4)ccc3n2)cc1`, the survival is inactive: 72%.

On to `O=C(CCn1cnnn1)Nc1cc(C(F)(F)F)cc(C(F)(F)F)c1`, for which the survival is inactive: 84%.

As for `CC(C)Oc1cccc(C2CC(=O)Nc3cc4c(cc32)OCO4)c1` (stereo not given), the survival is inactive: 87%.

Consider `CCCCSCCCNC(=O)c1cn(C)c2ccc(S(=O)(=O)N3CCCCCC3)cc2c1=O`, for which the survival was inactive: 72%.

As for `O=C(NCCS(=O)(=O)N1CCN(c2ccc(F)cc2)CC1)c1cccc(C(F)(F)F)c1`, the survival was inactive: 72%.

For `CC(C)CCn1nnc2sc(-c3ccccc3)cc2c1=O`, the survival was inactive: 91%.

As for `CS(=O)(=O)N(CC(=O)Nc1ccc2c(c1)OCCO2)c1ccccc1`, the survival is inactive: 110%.

With `O=C(Nc1cccc(C(=O)N2CCN(c3cccc(Cl)c3)CC2)c1)c1nsc2ccccc12`, the survival is inactive: 71%.

On to `COc1cc(OC)c(NC(=O)c2nn(-c3ccc(C)cc3)c(=O)c3c2c2ccccc2n3C)cc1Cl`, for which the survival is inactive: 75%.

For the compound `CCc1ccccc1NC(=O)c1ccc2c(SCC(=O)O)c3c(nc2c1)CCC3`, the survival was inactive: 81%.

`Cc1ccccc1Cn1c2ccccc2c2cnn(CC(=O)NCC(C)c3ccccc3)c(=O)c21` (stereo not given): the survival is inactive: 88%.

`O=C(NCc1ccccc1Cl)c1ccc(Cn2c(SCc3ccccc3)nc3cccnc32)cc1`: the survival was inactive: 68%.

`CCOC(=O)C1CCN(C(=O)c2ccc(NC(=O)c3nsc4ccccc34)cc2)CC1`: the survival is inactive: 129%.

With `CSc1ccc(CCNC(=O)C(C)n2nc(C)c3sc4ccccc4c3c2=O)cc1` (stereo not given), the survival was inactive: 63%.

On to `CC1=CCC2(CO)COC(c3ccccc3O)C1C2` (stereo not given), for which the survival is inactive: 111%.

Take `O=C(CCn1ccc2cc(S(=O)(=O)N3CCCC3)ccc21)NCc1cccc(Cl)c1`: the survival is active: -1%.

Consider `Cc1ccc(NC(=O)c2ccc(CNS(=O)(=O)c3ccc4c(c3)C(C)(C)C(=O)N4C)cc2)cc1C`, for which the survival is inactive: 85%.
